# Results: the RNAGym collection of RNA variant scans (doi:10.1093/nar/gkz1192)
# Read counts are not given, so values of variants with three or more changes are uncertain.
# B1: CPEB3 Ribozyme (parent)
# chain: UAACAGGGGGCCACAGCAGAAGCGUUCACGUCGCAGCCCCUGUCAGAUUCUGGUGAAUCUGCGAAUUCUGCUGUAUAUCUC
# Variants of: B1
# Test: self-cleavage, relative activity (ratio to wild type); higher = more cleavage; in vitro, sequencing
# Method in brief: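 Relative activity compares each variant's cleaved/total read fraction with that of the unmutated ribozyme. To get these fractions, barcoded CPEB3 ribozyme libraries from rounds of error-prone PCR were transcribed with T7 RNA polymerase for 5 hours at 37°C and then given 15 min of DNase I treatment before EDTA was added. The RNAs were reverse transcribed with template switching and sequenced on Illumina, and DNA sequencing linked barcodes to variants. A minimum of 5 reads applied, and three batches were averaged.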
row,Variant,self-cleavage
1,C11U U41A U43C U54C,0.14
2,C12U A28G U31A U43A A64G,0.35
3,C12G A77U U78C,0.45
4,C12U C14U A15U C32U U43C A65G U67C,0.06
5,C11U C12A U26C G30U U69C U76C,0.05
6,C12A A15G A18U U76C A77U,0.3
7,C11U A21G U25A A28U U43C A56G G63A,0.07
8,C12U A18G A64G,0.7
9,C11U A15G A18G U43C U49C A64U,0.06
10,C12U A28G U48A U49C U60C,0.17
11,C11U A35G U43C A56G,0.95
12,C11U A45U U49C U76C,0.15
13,C11U A18U U41A,0.07
14,C11U C34G U41G G53A U58A,0.04
15,C12U A13G U26A A35G U43G G46A,0.09
16,C11U A35G U49C U69G,0.34
17,C11U A64G C79A,0.24
18,C11U A20G A47G A56G C71A,0.06
19,C11U A18G C23A U26C C32U A65G,0.14
20,C11U A20G U26C A35G G46U U66G,0.09
21,C12G C29G U78C,0.06
22,C12A C27G U43A A47C U49A,0.1
23,C12U A20G A35U A47G U48G U54C,0.05
24,C11G U48C U49C U58C,0.08

row,Variant,self-cleavage
1,C11U U51A U69C,0.07
2,C12A U26C U41A U69C,0.16
3,C12U A64G U72C U80C,1.26
4,C11G U49C A64G U76A,0.07
5,C12A U26C U31C C34U U43A U54A A65G,0.08
6,C12U A18G U31C U41A A65G,0.03
7,C12G G16A A35U U78C,0.05
8,C12G C17G G24A C29G,0.2
9,C11U U31C U74A,0.54
10,C12G C17G A28G U31C C59U,0.05
11,C11U U41C U43C U54C A56G U60C U69C,0.07
12,C11U A56U U67A C81U,0.13
13,C12G G16U A18G U49C A64G U66C,0.05
14,C11U U60A A64U,0.16
15,C11U A45C U60C G73U,0.2
16,C11U U41C G55A,0.5
17,C12A A15G U26A A47G U54C,0.53
18,C11U U41C U43C,0.22
19,C11U A45U U51A A75C,0.21
20,C12U A18U U43A A45G A57G,0.23
21,C11U U41C U60A U69A U72A,0.11
22,C12G A20U U25A U60G G63C,0.06
23,C12G A45G U69A U76C,0.15
24,C12U A15G A64G,0.74

row,Variant,self-cleavage
1,C12U A28U G46A U58C,0.09
2,C11U U31G A45U U80C,0.15
3,C12U A28G U43C,0.28
4,C12G U26A U66C,0.12
5,C11U A18U A56G C62G,0.12
6,C12A A15C C38U U41G G73U,0.13
7,C12A A13U U25A U60A G63A,0.04
8,C12A U26A A57G,0.5
9,C12U A21G A35C U69A,0.1
10,C11U A13U C37U A45G U69C,0.05
11,C12A U26C U41A U54C,0.24
12,C11U A28G U41A U80C,0.22
13,C11U U74C U80G,0.84
14,C12A U58G A75G,0.33
15,C12A A20G A45G U60A U80C,0.58
16,C12G U25C A64U,0.07
17,C11U A13G U43C,0.26
18,C11U U26A U80C,0.31
19,C12U A15G G19A A28U,0.07
20,C11U U54C A64G U66C U67C,0.09
21,C11U C23G U69A,0.04
22,C11G U60A U72C U78A,0.21
23,C12G A13C G19C C38A U67C,0.05
24,C11U U41A A45G U49C U51G,0.13

row,Variant,self-cleavage
1,C12A U48C U72C,0.67
2,C12A A18G U31G C39A U43A U72C,0.07
3,C12G U41G A64U U76A,0.07
4,C11G U48C U60C,0.14
5,C11U U31G A35G U78G,0.99
6,C12U A18C A45G U72A,0.24
7,C12U A18G A56G A75G,0.84
8,C11U A15G U25C G46U,0.06
9,C11U U69G U76C,0.23
10,C12A U25A A57G A75G U78C,0.1
11,C12U A45G A56U U78C,0.58
12,C12U C14U A21G,0.69
13,C11U A28G G33A,0.05
14,C11U C27G U49C C59A U69G,0.05
15,C11U A20G G30U C37U A45U U48C U66C,0.05
16,C12A A13G A18G,0.45
17,C11U A28G A35U A64G U69C,0.03
18,C12A C17G G22U A28G,0.23
19,C12A A18U A21G C40A U54A A65G,0.19
20,C12U A15U G36A U51C U54C,0.1
21,C12U A47G A57G U60G A77G,0.18
22,C12A A28U U43A,1.09
23,C12G U26A C32G U54A U66C,0.05
24,C11U A18G U51A A77G,0.18

row,Variant,self-cleavage
1,C12U A35U C40U G52A A56U,0.21
2,C12U A15G U25C U54C U60C,0.08
3,C12U A21U U25C A28U A35U U72C,0.06
4,C11U U26C A45G U60C U67A U74C,0.13
5,C11G U66C U69A U74C,0.1
6,C11U A18G A35U A45G U58C,0.15
7,C12G A13U U25C C40A U41A U67C U69C,0.09
8,C11U A21U U26A U49A U54G A65G,0.1
9,C12A A18G A28G A35U U43C,0.13
10,C12G C44A U69C,0.13
11,C12A G22U U48C,0.04
12,C12A A15U U72A U78C,0.71
13,C12A C17G G33U C40U U80C,0.17
14,C12A C27G U31A A47C G61A G70A,0.04
15,C11U U25C U41A U66C,0.03
16,C11U U48C A65G,0.08
17,C12G A13U U49C A56U U80C,0.4
18,C12G U31A A56G,0.5
19,C11U A47C U60C,0.12
20,C11U A13C C23G U25A U49C U51C,0.04
21,C12A A15U U66C U72A U78C,0.13
22,C11U U31A U67C U78A,0.15
23,C12U A45U U60A U80A,1.26
24,C11U U25C U80A,0.4

row,Variant,self-cleavage
1,C12U A28U U41C,1.05
2,C12U A35C U58C U80C,0.32
3,C11G U72C U74A,0.72
4,C11U A15G A21U U51G U69A,0.05
5,C11U U26A U49A U66C,0.06
6,C12U A35U U76C,1.16
7,C11U A35G A45G A56G A64G,0.91
8,C12U C23U U41C U72C,0.46
9,C12A U26C A45U A47G U72G U80A,0.23
10,C12A A20C U41G U43A,0.06
11,C12G A18C U54C U66C G73A,0.12
12,C12A A13U A20G A21G U51C,0.15
13,C11U A28G G30A,0.18
14,C11U U41C U69C,0.19
15,C12U A18U U25C U54C U69C U76A,0.06
16,C12G A13G U78A,0.52
17,C11U A21G U51C,0.28
18,C12G A35G U60A U72C,0.12
19,C11U A15G A18U U26C,0.16
20,C11G U72C U80A,0.55
21,C12A U26G A45U,0.14
22,C11U C40A G46U U48C,0.2
23,C12A U54A U80A,1.2
24,C12A A15U C27U U66C U76C,0

row,Variant,self-cleavage
1,C11U A21U G61A,0.06
2,C12A A13U A15G C39A A56G U69C,0.12
3,C11U C17U U49C U67A U80C,0.29
4,C12U A28G C29A U76A,0.35
5,C11U C12U G24A C34U U43C U69A,0.04
6,C12U A13G A18G U26A C40U U43A,0.23
7,C12A A45U A57G A65C,0
8,C12A A13U A21G G24A A28G A64C U78C,0.03
9,C12G A13G C27U C40U U41A A75G,0.21
10,C11U A45G U67C,0.1
11,C12A U49C U60A,0.15
12,C11U A45C U54C,0.29
13,C12A U25A A57G U78C,0.14
14,C12A G36A A57G,0.18
15,C11U A35G U69C U78C,0.95
16,C12A U31A U48C C62U U69C U76A,0.13
17,C11G U48A U67A,0.09
18,C12A U51C U69A U78C,0.91
19,C11U A57U U60C,0.16
20,C11U A21G C37U U72C,0.18
21,C12G A35G G42A C44A U60A,0
22,C12U A18G U58G,0.34
23,C12U A18U U43A A57U,0.33
